{"source": "the supplement of paper PMC8728848", "binders": {"B1": {"name": "Siglec-F (Mus musculus), Q920G3 (protein)", "chain": "MRWAWLLPLLWAGCLATDGYSLSVTGSVTVQEGLCVFVACQVQYPNSKGPVFGYWFREGANIFSGSPVATNDPQRSVLKEAQGRFYLMGKENSHNCSLDIRDAQKIDTGTYFFRLDGSVKYSFQKSMLSVLVIALTEVPNIQVTSTLVSGNSTKLLCSVPWACEQGTPPIFSWMSSALTSLGHRTTLSSELNLTPRPQDNGTNLTCQVNLPGTGVTVERTQQLSVIYAPQKMTIRVSWGDDTGTKVLQSGASLQIQEGESLSLVCMADSNPPAVLSWERPTQKPFQLSTPAELQLPRAELEDQGKYICQAQNSQGAQTASVSLSIRSLLQLLGPSCSFEGQGLHCSCSSRAWPAPSLRWRLGEGVLEGNSSNGSFTVKSSSAGQWANSSLILSMEFSSNHRLSCEAWSDNRVQRATILLVSGPKVSQAGKSETSRGTVLGAIWGAGLMALLAVCLCLIFFTVKVLRKKSALKVAATKGNHLAKNPASTINSASITSSNIALGYPIQGHLNEPGSQTQKEQPPLATVPDTQKDEPELHYASLSFQGPMPPKPQNTEAMKSVYTEIKIHKC"}}, "test_in_all_cases": "glycan array binding signal (z-score within array); higher = stronger binding", "details_in_all_cases": "glycan notation: IUPAC condensed, linker removed", "key": {"[1]": {"molecular_target": "Gal(b1-3)[Fuc(a1-4)]GlcNAc(b1-3)Gal(b1-3)[Fuc(a1-4)]GlcNAc", "how_it_was_run": "(§1)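 Negative Z-scores can be read as non-binding. The Z-score is calculated within each array and then averaged across arrays of one protein sequence at different concentrations or buffers and across linkers. Arrays, 3228 in all, were curated from the Consortium for Functional Glycomics database and kept only where the protein sequence was available.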"}, "[2]": {"molecular_target": "Gal(b1-3)[Fuc(a1-4)]GlcNAc(b1-3)Gal(b1-4)GlcNAc", "how_it_was_run": "as §1"}, "[3]": {"molecular_target": "Gal(b1-3)[Fuc(a1-4)]GlcNAc(b1-3)Gal(b1-4)[Fuc(a1-3)]GlcNAc", "how_it_was_run": "as §1"}, "[4]": {"molecular_target": "Gal(b1-3)[Fuc(a1-4)]GlcNAc(b1-6)GalNAc", "how_it_was_run": "as §1"}, "[5]": {"molecular_target": "Gal(b1-3)[GlcNAc(b1-6)]GalNAc", "how_it_was_run": "as §1"}, "[6]": {"molecular_target": "Gal(b1-3)[Neu5Ac(a2-6)]GalNAc", "how_it_was_run": "as §1"}, "[7]": {"molecular_target": "Gal(b1-3)[Neu5Ac(a2-6)]GlcNAc(b1-4)Gal(b1-4)Glc", "how_it_was_run": "as §1"}, "[8]": {"molecular_target": "Gal(b1-3)[Neu5Ac(a2-6)]GlcNAc(b1-6)Gal(b1-4)Glc", "how_it_was_run": "as §1"}, "[9]": {"molecular_target": "Gal(b1-3)[Neu5Ac(b2-6)]GalNAc", "how_it_was_run": "as §1"}, "Gal(b1-4)Gal": {"molecular_target": "Gal(b1-4)Gal", "how_it_was_run": "as §1"}, "[10]": {"molecular_target": "Gal(b1-4)GalNAc(a1-3)[Fuc(a1-2)]Gal(b1-4)GlcNAc", "how_it_was_run": "as §1"}, "[11]": {"molecular_target": "Gal(b1-4)GalNAc(b1-3)[Fuc(a1-2)]Gal(b1-4)GlcNAc", "how_it_was_run": "as §1"}, "Gal(b1-4)Glc": {"molecular_target": "Gal(b1-4)Glc", "how_it_was_run": "as §1"}, "Gal(b1-4)Glc6S": {"molecular_target": "Gal(b1-4)Glc6S", "how_it_was_run": "as §1"}, "Gal(b1-4)GlcNAc": {"molecular_target": "Gal(b1-4)GlcNAc", "how_it_was_run": "as §1"}, "[12]": {"molecular_target": "Gal(b1-4)GlcNAc(a1-6)Gal(b1-4)GlcNAc", "how_it_was_run": "as §1"}, "Gal(b1-4)GlcNAc(b1-2)Man": {"molecular_target": "Gal(b1-4)GlcNAc(b1-2)Man", "how_it_was_run": "as §1"}, "[13]": {"molecular_target": "Gal(b1-4)GlcNAc(b1-2)Man(a1-3)Man(b1-4)GlcNAc(b1-4)GlcNAc", "how_it_was_run": "as §1"}, "[14]": {"molecular_target": "Gal(b1-4)GlcNAc(b1-2)Man(a1-3)[Gal(b1-4)GlcNAc(b1-2)Man(a1-6)]Man(b1-4)GlcNAc(b1-4)GlcNAc", "how_it_was_run": "as §1"}, "[15]": {"molecular_target": "Gal(b1-4)GlcNAc(b1-2)Man(a1-3)[Gal(b1-4)GlcNAc(b1-2)Man(a1-6)]Man(b1-4)GlcNAc(b1-4)[Fuc(a1-6)]GlcNAc", "how_it_was_run": "as §1"}, "[16]": {"molecular_target": "Gal(b1-4)GlcNAc(b1-2)Man(a1-3)[Gal(b1-4)GlcNAc(b1-2)Man(a1-6)][Gal(b1-4)GlcNAc(b1-4)]Man(b1-4)GlcNAc(b1-4)[Fuc(a1-6)]GlcNAc", "how_it_was_run": "as §1"}, "[17]": {"molecular_target": "Gal(b1-4)GlcNAc(b1-2)Man(a1-3)[Gal(b1-4)GlcNAc(b1-2)Man(a1-6)][GlcNAc(b1-4)]Man(b1-4)GlcNAc(b1-4)[Fuc(a1-6)]GlcNAc", "how_it_was_run": "as §1"}, "[18]": {"molecular_target": "Gal(b1-4)GlcNAc(b1-2)Man(a1-3)[Gal(b1-4)GlcNAc(b1-2)][GlcNAc(b1-4)]Man(b1-4)GlcNAc(b1-4)GlcNAc", "how_it_was_run": "as §1"}, "[19]": {"molecular_target": "Gal(b1-4)GlcNAc(b1-2)Man(a1-3)[GlcNAc(b1-2)Man(a1-6)]Man(b1-4)GlcNAc(b1-4)GlcNAc", "how_it_was_run": "as §1"}, "[20]": {"molecular_target": "Gal(b1-4)GlcNAc(b1-2)Man(a1-3)[GlcNAc(b1-4)][Gal(b1-4)GlcNAc(b1-2)Man(a1-6)]Man(b1-4)GlcNAc(b1-4)GlcNAc", "how_it_was_run": "as §1"}, "[21]": {"molecular_target": "Gal(b1-4)GlcNAc(b1-2)Man(a1-3)[Man(a1-6)]Man(b1-4)GlcNAc(b1-4)GlcNAc", "how_it_was_run": "as §1"}, "[22]": {"molecular_target": "Gal(b1-4)GlcNAc(b1-2)Man(a1-6)Man(b1-4)GlcNAc(b1-4)GlcNAc", "how_it_was_run": "as §1"}, "[23]": {"molecular_target": "Gal(b1-4)GlcNAc(b1-2)Man(a1-6)[GlcNAc(b1-2)Man(a1-3)]Man(b1-4)GlcNAc(b1-4)GlcNAc", "how_it_was_run": "as §1"}, "[24]": {"molecular_target": "Gal(b1-4)GlcNAc(b1-2)Man(a1-6)[Man(a1-3)]Man(b1-4)GlcNAc(b1-4)GlcNAc", "how_it_was_run": "as §1"}, "[25]": {"molecular_target": "Gal(b1-4)GlcNAc(b1-2)[Gal(b1-4)GlcNAc(b1-4)]Man(a1-3)[Gal(b1-4)GlcNAc(b1-2)Man(a1-6)]Man(b1-4)GlcNAc(b1-4)GlcNAc", "how_it_was_run": "as §1"}}, "note": "The list shows a part of the results.", "data": [{"binder": "B1", "values": [{"measurement": "glycan array binding signal (z-score)", "setting": "[1]", "value": -0.103}, {"measurement": "glycan array binding signal (z-score)", "setting": "[2]", "value": -0.113}, {"measurement": "glycan array binding signal (z-score)", "setting": "[3]", "value": -0.109}, {"measurement": "glycan array binding signal (z-score)", "setting": "[4]", "value": -0.044}, {"measurement": "glycan array binding signal (z-score)", "setting": "[5]", "value": -0.096}, {"measurement": "glycan array binding signal (z-score)", "setting": "[6]", "value": -0.119}, {"measurement": "glycan array binding signal (z-score)", "setting": "[7]", "value": -0.13}, {"measurement": "glycan array binding signal (z-score)", "setting": "[8]", "value": -0.091}, {"measurement": "glycan array binding signal (z-score)", "setting": "[9]", "value": -0.129}, {"measurement": "glycan array binding signal (z-score)", "setting": "Gal(b1-4)Gal", "value": -0.11}, {"measurement": "glycan array binding signal (z-score)", "setting": "[10]", "value": -0.124}, {"measurement": "glycan array binding signal (z-score)", "setting": "[11]", "value": -0.126}, {"measurement": "glycan array binding signal (z-score)", "setting": "Gal(b1-4)Glc", "value": -0.123}, {"measurement": "glycan array binding signal (z-score)", "setting": "Gal(b1-4)Glc6S", "value": -0.097}, {"measurement": "glycan array binding signal (z-score)", "setting": "Gal(b1-4)GlcNAc", "value": -0.115}, {"measurement": "glycan array binding signal (z-score)", "setting": "[12]", "value": -0.115}, {"measurement": "glycan array binding signal (z-score)", "setting": "Gal(b1-4)GlcNAc(b1-2)Man", "value": -0.112}, {"measurement": "glycan array binding signal (z-score)", "setting": "[13]", "value": -0.112}, {"measurement": "glycan array binding signal (z-score)", "setting": "[14]", "value": -0.118}, {"measurement": "glycan array binding signal (z-score)", "setting": "[15]", "value": -0.02}, {"measurement": "glycan array binding signal (z-score)", "setting": "[16]", "value": -0.095}, {"measurement": "glycan array binding signal (z-score)", "setting": "[17]", "value": -0.098}, {"measurement": "glycan array binding signal (z-score)", "setting": "[18]", "value": -0.09}, {"measurement": "glycan array binding signal (z-score)", "setting": "[19]", "value": -0.12}, {"measurement": "glycan array binding signal (z-score)", "setting": "[20]", "value": 0.047}, {"measurement": "glycan array binding signal (z-score)", "setting": "[21]", "value": 0.022}, {"measurement": "glycan array binding signal (z-score)", "setting": "[22]", "value": -0.051}, {"measurement": "glycan array binding signal (z-score)", "setting": "[23]", "value": -0.13}, {"measurement": "glycan array binding signal (z-score)", "setting": "[24]", "value": -0.116}, {"measurement": "glycan array binding signal (z-score)", "setting": "[25]", "value": -0.128}]}]}
